Laboratory results as given in PubChem BioAssay AID588855 (National Center for Advancing Translational Sciences (NCATS), 2011).
The campaign covered roughly 410,000 compounds. About 5,000 (1.2%) were called active. This list was built around the results that the source calls inconclusive (neither active nor inactive); the mix of calls is not that of the screen. Calls follow the shape of the dose curve; as a rule, active = well fitted inhibition curve with a large enough effect; inconclusive = small, poorly fitted or top-dose-only effect; inactive = no such curve, though single readings can be large or run the other way. Where the call is inconclusive, the potency comes from a doubtful curve fit.

Test: qHTS for Inhibitors of TGF-b; also: nearly all actives have a fitted effect of over 65% in size
Settings: HepG2 CAGA-GFP TGF-b/SMAD3 reporter, GFP fluorescence, 18 h, TGF-beta stimulated, 500 pg/mL final; series mostly up to 46.1 µM
Summary of the method: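 Cell-based qHTS in HEPG2 carrying a CAGA-GFP Smad reporter; compounds added before 500 pg/mL final TGF-beta, 18 h incubation at 37 degrees C, GFP fluorescence quantified per cell by imaging cytometry.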
Potency is read from the fitted curve at half-maximal effect; tags tell the direction and shape of the fitted curve.

Row | Compound | Potency
1 | CC(C)Cn1c(=O)c2ccccc2n2c(CCC(=O)NC(C)c3ccccc3)nnc12 (configuration not stated) | inactive
2 | CCOC(=O)c1c(NC(=O)c2ccc(Br)o2)sc(C)c1CC | inconclusive: 35.5 µM [inhibitor, single point]
3 | Cc1nn(-c2ccc(N3CCCC3)nn2)c(C)c1CCC(=O)Nc1ccc(F)c(Cl)c1 | inconclusive: 22.4 µM [inhibitor, single point]
4 | COCCCNC(=S)N1CCN(c2nc3ccccc3s2)CC1 | inactive
5 | CSc1ccc(-c2cc3c(c4c2ccn4C)C2CCC3O2)cc1 (configuration not stated) | inconclusive: 14.1 µM [inhibitor, single point]
6 | CCNS(=O)(=O)c1ccc(NC(=O)Nc2cccc(C(F)(F)F)c2)cc1 | active: 12.6 µM
7 | Cc1ccc(Cn2c(CN3CCC(C(=O)NCCc4ccccc4)CC3)cc3ccccc32)cc1 | inconclusive: 35.5 µM [inhibitor, single point]
8 | COc1ccc(NC(=O)CCC(=O)N2CCOCC2)c([N+](=O)[O-])c1 | inactive
9 | COc1cc(C)c(NC(=O)Cc2ccsc2)cc1OC | inconclusive: 35.5 µM [inhibitor, single point]
10 | N#Cc1ccc(C(=O)Nc2ccc3c(c2)N(C2CCCC2)C(=O)c2ccccc2S3)cc1 | active: 5.62 µM
11 | CCc1nn(CC(=O)Nc2ccc(N(CC)CC)cc2C)c(=O)c2cc3sccc3n12 | inconclusive: 11.2 µM [inhibitor, partial curve]
12 | CC(C)(C)n1ncc2c(=O)n(Cc3ccc(Cl)cc3F)cnc21 | inconclusive: 12.6 µM [inhibitor, single point]
13 | COc1cc(/C=C2/SC(=O)NC2=O)ccc1OCc1ccccc1 | inconclusive: 35.5 µM [inhibitor, single point]
14 | CC(C)C[C@@H](CN1CCCC1CN1C(=S)NC[C@@H]1Cc1ccc(O)cc1)N1C[C@H](Cc2ccccc2)N(CC2CCCCC2)C1=S (some centres not stated) | inconclusive: 12.6 µM [inhibitor, partial curve]
15 | Cc1cc(Cl)c2oc(C(=O)N3CCC(O)(c4ccccc4)CC3)c(C)c2c1 | inconclusive: 35.5 µM [inhibitor, single point]
16 | Cc1ccc(Nc2nc(N)c([N+](=O)[O-])c(NCc3ccccc3)n2)cc1 | inconclusive: 25.1 µM [inhibitor, single point]
17 | CCN(CC)C(=O)c1ccc(Nc2nnc(C)c3ccccc23)cc1 | inactive
18 | COc1cc(/C=N/NC(=O)CCC(=O)Nc2ccc(C)cc2)ccc1O | inconclusive: 31.6 µM [inhibitor, single point]
19 | CCCCC(=O)N(C)c1c(CC)nc2c(OCC3CCCCC3)cccn12 | inconclusive: 25.1 µM [inhibitor, single point]
20 | Cc1cccc(NC(=O)CN2C(=S)NC(C)(C)CC2C)c1C (configuration not stated) | inconclusive: 0.891 µM [inhibitor, partial curve]
21 | O=C(C(=O)N1CCN(Cc2ccc3c(c2)OCO3)CC1)c1c[nH]c2ccccc12 | inconclusive: 35.5 µM [inhibitor, single point]
22 | COc1cccc(C2=NOC(C(=O)Nc3cccc(C(C)=O)c3)C2)c1OC (configuration not stated) | inactive
23 | COc1cc(NS(=O)(=O)c2ccc(OC)c(C)c2C)c(OC)cc1Cl | inconclusive: 17.8 µM [inhibitor, single point]

Row | Compound | Potency
24 | Cc1ccc(NC(=O)CNC(=O)c2ccc(OC(F)F)cc2)cc1S(=O)(=O)N1CCCCCC1 | inconclusive: 20 µM [inhibitor, partial curve, poor fit]
25 | O=c1ccc(/C=C/c2ccccc2)nn1Cc1ccccc1Cl | inconclusive: 35.5 µM [inhibitor, single point]
26 | OCCC1CN(Cc2cnc(-c3ccccc3)s2)CCN1Cc1ccccc1 (configuration not stated) | inactive
27 | CC(C)CCN1NC2(CCCC(C)C2)NC1=S (configuration not stated) | inconclusive: 35.5 µM [inhibitor, single point]
28 | Cn1c(=N)n(CC(O)c2cccc3ccccc23)c2ccccc21 (configuration not stated) | inconclusive: 7.94 µM [inhibitor, partial curve, poor fit]
29 | COC(=O)C/C(C)=N/Nc1ccc(S(=O)(=O)N2CCCC2)cc1[N+](=O)[O-] | inactive
30 | Cc1ccccc1CN1C(=O)C(O)(CC(=O)c2ccncc2)c2ccccc21 (configuration not stated) | inconclusive: 35.5 µM [inhibitor, single point]
31 | O=c1c2ccccc2[nH]c(=S)n1CCN1CCc2ccccc2C1 | inconclusive: 7.08 µM [inhibitor, partial curve]
32 | COc1ccc(C2CCCN2CC(O)COc2ccccc2C(C)C)cc1 (configuration not stated) | inconclusive: 22.4 µM [inhibitor, single point]
33 | CCOC(=O)c1cc(-c2ccccc2)n(CC(=O)Nc2ccc(OC)c(OC)c2)c1C | inactive
34 | O=C(COC(=O)c1ccc(OC(F)F)cc1)Nc1cccc(S(=O)(=O)NC2=NCCC2)c1 | inactive
35 | O=C(COc1ccc(Cl)cc1Cl)NNC(=S)NC(=O)c1ccco1 | inconclusive: 22.4 µM [inhibitor, single point]
36 | CCCCc1ccc(Nc2nc(CCC)cc(=O)[nH]2)cc1 | inconclusive: 11.2 µM [inhibitor, partial curve]
37 | Cc1ccc(NC(=O)Cn2c(=O)oc3cc(S(=O)(=O)NCc4ccccc4)ccc32)cc1 | inconclusive: 35.5 µM [inhibitor, single point]
38 | Cc1cc(C(C)(C)CC(C)(C)C)ccc1OCCOCC[N+](C)(C)Cc1ccccc1 | inconclusive: 14.1 µM [inhibitor, single point]
39 | Cc1ccc2sc(N3CCN(C(=O)C4=COCCO4)CC3)nc2c1C | inactive
40 | Cc1cc(S(=O)(=O)NCCC2=CCCCC2)ccc1Br | inconclusive: 17.8 µM [inhibitor, single point]
41 | CCC(=O)C1=C(c2cccc(OC)c2)N(C(=O)CC)n2c(nnc2C2CCCCC2)S1 | inactive
42 | CCOC(=O)C(C)NC(=O)c1c(C)oc2ncn(CC(C)C)c(=O)c12 (configuration not stated) | inconclusive: 22.4 µM [inhibitor, single point]
43 | CCOc1cccc(C2c3c(-c4cc(C)ccc4O)n[nH]c3C(=O)N2Cc2ccco2)c1 (configuration not stated) | inconclusive: 22.4 µM [inhibitor, single point]
44 | COc1ccc(C(=O)COC(=O)CNC(=O)c2ccccc2)cc1F | inconclusive: 17.8 µM [inhibitor, single point]
45 | COc1ccc2nc(C)cc(Nc3ccccc3O)c2c1 | inconclusive: 20 µM [inhibitor, single point]
46 | Cc1ccc(N(CC(O)CON=C2c3ccccc3-c3ccccc32)S(C)(=O)=O)cc1 (configuration not stated) | inconclusive: 35.5 µM [inhibitor, single point]

Row | Compound | Potency
47 | CC1CCN(C(=O)c2ccc(-c3ccccc3Cl)o2)CC1 | inactive
48 | Cc1nn(Cc2c(F)c(F)c(F)c(F)c2F)c(C)c1NC(=O)c1ccc(COc2ccccc2Cl)o1 | inconclusive: 25.1 µM [inhibitor, single point]
49 | COc1cc(OC)nc(Nc2nc(C(N)Cc3ccc(C(F)(F)F)cc3)cs2)n1 (configuration not stated) | inconclusive: 35.5 µM [inhibitor, partial curve, poor fit]
50 | O=C1c2ccc(-c3ccc4c(c3)C(=O)N(CCO)C4=O)cc2C(=O)N1CCO | inactive
51 | CCC(=O)N1CCc2cc(S(=O)(=O)CCC(=O)Nc3nc(C)cs3)ccc21 | inactive
52 | NC(=O)c1cc(S(=O)(=O)NC2CCCCC2)co1 | inactive
53 | CCCCCC(=O)Nc1cccc(C2=NOC3(C2)C[C@H](C(N)=O)N(C(=O)COc2ccc(Cl)cc2)C3)c1 (some centres not stated) | inconclusive: 25.1 µM [inhibitor, single point]
54 | Cc1cccc(N=C2NC(=O)/C(=C/c3cccn3C)S2)c1C | inactive
55 | COc1ccc(NC2=NCC(Cc3ccc(Br)cc3)S2)cc1 (configuration not stated) | inconclusive: 17.8 µM [inhibitor, single point]
56 | Cc1cccc(N(C)S(=O)(=O)c2ccc3[nH]c(=O)c(=O)[nH]c3c2)c1 | inconclusive: 35.5 µM [inhibitor, single point]
57 | CCC(C)N(C(=O)CSc1ncnc2c1cnn2-c1ccccc1)C1CCS(=O)(=O)C1 (configuration not stated) | inconclusive: 0.631 µM [inhibitor, partial curve, poor fit]
58 | CN1CCCN(c2cc(-c3ccc4ccccc4c3)nc3ccnn23)CC1 | inactive
59 | CC1=C(C(=O)OCC(C)C)C(c2cc3c(cc2Br)OCO3)NC(=O)N1C (configuration not stated) | inconclusive: 11.2 µM [inhibitor, partial curve, poor fit]
60 | Cc1ccc(CN(Cc2ccco2)C(=O)COc2ccc(C(C)C)cc2)cc1 | inconclusive: 22.4 µM [inhibitor, single point]
61 | Cc1ccc2nc(-c3ccccc3)c(Cc3ccccc3C(F)(F)F)n2c1 | inconclusive: 22.4 µM [inhibitor, single point]
62 | CCN(CC)c1ccc(NC(=O)c2ccc(Br)o2)c(C)c1 | inactive
63 | CCc1cccc2c(C(=O)COC(=O)c3nn(C)c(=O)c4ccccc34)c[nH]c12 | inactive
64 | CC(C)Cc1nc(Nc2ccc(S(=O)(=O)N3CCCC3)cc2)c2nnn(Cc3ccccc3)c2n1 | inconclusive: 35.5 µM [inhibitor, single point]
65 | NC(=O)CC(NC(=O)Cc1cccc2ccccc12)c1ccc(N2CCC(Br)CC2)c([N+](=O)[O-])c1 (configuration not stated) | active: 12.6 µM
66 | COCCn1nnnc1C(c1cc2cc(OC)c(OC)cc2[nH]c1=O)N1CCN(c2ccc(O)cc2)CC1 (configuration not stated) | inactive
67 | O=C(NC(c1ccc(F)cc1)c1ccc2ccccc2n1)C1CCN(Cc2ccc(Oc3ccccc3)cc2)CC1 (configuration not stated) | inconclusive: 15.8 µM [inhibitor, single point]
